Like-named read-outs stand apart in the source and are kept apart here.
What was measured:
[1] = system: dogs anesthetized with isoflurane; assay: Isoflurane MAC after perzinfotel by IV, SQ, IM routes, with or without butorphanol (Example 3, Latin square crossover); details: for Mean MAC during isoflurane anesthesia, 1st MAC: n = 6 dogs
[2] = system: dogs anesthetized with isoflurane; details: for Mean MAC of isoflurane required to maintain anesthesia, 1st: approx 2 hours after perzinfotel; for Mean MAC of isoflurane required to maintain anesthesia, 1st / Mean MAC of isoflurane required to maintain anesthesia, 2nd: n = 6 dogs; for Mean MAC of isoflurane required to maintain anesthesia, 2nd: approx 5 hours after perzinfotel; for Mean MAC of isoflurane required to maintain anesthesia, AVERAGE: average of 1st and 2nd
[3] = system: dogs anesthetized with isoflurane
[4] = system: dogs anesthetized with isoflurane; assay: Hemodynamic and respiratory parameters, concurrent with MAC determinations (Example 1); type: in vivo; details: for Body Temperature / DAP / ETCO2 / ETO2 / Heart Rate / Respiratory Rate / SAP / Sp02 / MAP: isoflurane-anesthetized dogs
Experimental: Hemodynamic and respiratory parameters were also collected concurrently with MAC determinations. These included body temperature, respiratory rate, median arterial blood pressure (MAP), heart rate, percent saturation of hemoglobin with oxygen, (SpO2), systolic arterial blood pressure (SAP), diastolic arterial blood pressure (DAP), end-tidal [exhaled] oxygen concentration (ETO2), and end-tidal [exhaled] carbon dioxide concentration (ETCO2). […] Hemodynamic and respiratory parameters were measured concurrently with the MAC determinations shown in Table 1, except for conscious dog data.

[5] = Treatment G: butorphanol 0.2 mg/Kg IM for 2nd MAC

Oc1ccc2c(c1)[C@@]13CCCC[C@@]1(O)[C@@H](C2)N(CC1CCC1)CC3 [BUTORPHANOL, reference compound]
MAC change versus CTRL, 2nd MAC [1, 5]: −19%
Mean MAC during isoflurane anesthesia, 2nd MAC [1, 5]: 0.97%

O=c1c2c(c1=O)N(CCP(=O)(O)O)CCCN2 [Perzinfotel, [2-(8,9-dioxo-2,6-diazabicyclo[5.2.0]non-1-(7)-en-2-yl)ethyl]phosphonic acid]
Mean MAC of isoflurane required to maintain anesthesia, 1st ([2]; IV 5 mg/kg perzinfotel): 1.03%
Mean MAC of isoflurane required to maintain anesthesia, 2nd ([2]; IV 5 mg/kg perzinfotel): 0.99%
Mean MAC of isoflurane required to maintain anesthesia, AVERAGE ([2]; IV 5 mg/kg perzinfotel): 1.01%
Mean MAC of isoflurane required to maintain anesthesia, 1st ([2]; IV 10 mg/kg perzinfotel): 0.93%
Mean MAC of isoflurane required to maintain anesthesia, 2nd ([2]; IV 10 mg/kg perzinfotel): 0.93%
Mean MAC of isoflurane required to maintain anesthesia, AVERAGE ([2]; IV 10 mg/kg perzinfotel): 0.93%
Mean MAC of isoflurane required to maintain anesthesia, 1st ([2]; IV 20 mg/kg perzinfotel): 0.72%
Mean MAC of isoflurane required to maintain anesthesia, 2nd ([2]; IV 20 mg/kg perzinfotel): 0.70%
Mean MAC of isoflurane required to maintain anesthesia, AVERAGE ([2]; IV 20 mg/kg perzinfotel): 0.71%
duration for which effects of a single dose on MAC were sustained ([2]; single IV bolus, longest interval between dosing and second MAC determination): at least 5 hours
MAC change versus CTRL, 1st MAC ([1]; Treatment A: 20 mg/Kg IV): −43%
MAC change versus CTRL, 2nd MAC ([1]; Treatment A: 20 mg/Kg IV, 2nd MAC): −31%
Mean MAC during isoflurane anesthesia, 2nd MAC ([1]; Treatment A: 20 mg/Kg IV, 2nd MAC, 2 hours later): 0.83%
MAC change versus CTRL, 1st MAC ([1]; Treatment B: 20 mg/Kg SQ): −34%
Mean MAC during isoflurane anesthesia, 1st MAC ([1]; Treatment B: 20 mg/Kg SQ): 0.75%
MAC change versus CTRL, 2nd MAC ([1]; Treatment B: 20 mg/Kg SQ, 2nd MAC): −35%
Mean MAC during isoflurane anesthesia, 2nd MAC ([1]; Treatment B: 20 mg/Kg SQ, 2nd MAC, 2 hours later): 0.78%
Mean MAC during isoflurane anesthesia, 1st MAC ([1]; Treatment C: 20 mg/Kg IM): 0.70%
Mean MAC during isoflurane anesthesia, 2nd MAC ([1]; Treatment C: 20 mg/Kg IM, 2nd MAC, 2 hours later): 0.75%
MAC change versus CTRL, 1st MAC ([1]; Treatment D: 10 mg/Kg IM): −34%
Mean MAC during isoflurane anesthesia, 1st MAC ([1]; Treatment D: 10 mg/Kg IM): 0.75%
MAC change versus CTRL, 2nd MAC ([1]; Treatment D: 10 mg/Kg IM, 2nd MAC): −33%
Mean MAC during isoflurane anesthesia, 2nd MAC ([1]; Treatment D: 10 mg/Kg IM, 2nd MAC, 2 hours later): 0.80%
MAC change versus CTRL, 2nd MAC ([1]; Treatment E: 30 mg/Kg IM, 2nd MAC): −46%
Mean MAC during isoflurane anesthesia, 2nd MAC ([1]; Treatment E: 30 mg/Kg IM, 2nd MAC, 2 hours later): 0.65%
isoflurane MAC ([1]; all doses and all routes (IV, IM, SC)): substantially decreased
BIS ([3]; all doses and routes of administration (Example 3)): increased
amount of cardiopulmonary depression produced by the isoflurane anesthesia ([3]; dog, in vivo): decreased
all blood pressure parameters (MAP, SAP, and DAP) versus control levels with isoflurane alone ([4]; 10 and 20 mg/kg perzinfotel): significantly different from control levels
Body Temperature ([4]; IV perzinfotel 5 mg/kg, 1st): 37.8 °C
DAP ([4]; IV perzinfotel 5 mg/kg, 1st): 73 mm Hg
ETCO2 ([4]; IV perzinfotel 5 mg/kg, 1st): 32 mm Hg
ETO2 ([4]; IV perzinfotel 5 mg/kg, 1st): 94 mm Hg
Heart Rate ([4]; IV perzinfotel 5 mg/kg, 1st): 129 beats/min
Respiratory Rate ([4]; IV perzinfotel 5 mg/kg, 1st): 24 breaths/min
SAP ([4]; IV perzinfotel 5 mg/kg, 1st): 116 mm Hg
Sp02 ([4]; IV perzinfotel 5 mg/kg, 1st): 99%
Body Temperature ([4]; IV perzinfotel 5 mg/kg, 2nd): 37.8 °C
DAP ([4]; IV perzinfotel 5 mg/kg, 2nd): 69 mm Hg
ETCO2 ([4]; IV perzinfotel 5 mg/kg, 2nd): 30 mm Hg
ETO2 ([4]; IV perzinfotel 5 mg/kg, 2nd): 94 mm Hg
Heart Rate ([4]; IV perzinfotel 5 mg/kg, 2nd): 113 beats/min
MAP ([4]; IV perzinfotel 5 mg/kg, 2nd): 88 mm Hg
Respiratory Rate ([4]; IV perzinfotel 5 mg/kg, 2nd): 27 breaths/min
SAP ([4]; IV perzinfotel 5 mg/kg, 2nd): 114 mm Hg
Sp02 ([4]; IV perzinfotel 5 mg/kg, 2nd): 100%
Body Temperature ([4]; IV perzinfotel 10 mg/kg, 1st): 37.9 °C
DAP ([4]; IV perzinfotel 10 mg/kg, 1st): 82 mm Hg
ETCO2 ([4]; IV perzinfotel 10 mg/kg, 1st): 37 mm Hg
ETO2 ([4]; IV perzinfotel 10 mg/kg, 1st): 94 mm Hg
Heart Rate ([4]; IV perzinfotel 10 mg/kg, 1st): 132 beats/min
MAP ([4]; IV perzinfotel 10 mg/kg, 1st): 98 mm Hg
Respiratory Rate ([4]; IV perzinfotel 10 mg/kg, 1st): 26 breaths/min
SAP ([4]; IV perzinfotel 10 mg/kg, 1st): 126 mm Hg
Sp02 ([4]; IV perzinfotel 10 mg/kg, 1st): 99%
Body Temperature ([4]; IV perzinfotel 10 mg/kg, 2nd): 38.0 °C
DAP ([4]; IV perzinfotel 10 mg/kg, 2nd): 80 mm Hg
ETCO2 ([4]; IV perzinfotel 10 mg/kg, 2nd): 32 mm Hg
ETO2 ([4]; IV perzinfotel 10 mg/kg, 2nd): 95 mm Hg
Heart Rate ([4]; IV perzinfotel 10 mg/kg, 2nd): 140 beats/min
MAP ([4]; IV perzinfotel 10 mg/kg, 2nd): 96 mm Hg
Respiratory Rate ([4]; IV perzinfotel 10 mg/kg, 2nd): 34 breaths/min
SAP ([4]; IV perzinfotel 10 mg/kg, 2nd): 124 mm Hg
Sp02 ([4]; IV perzinfotel 10 mg/kg, 2nd): 100%
Body Temperature ([4]; IV perzinfotel 20 mg/kg, 1st): 37.9 °C
DAP ([4]; IV perzinfotel 20 mg/kg, 1st): 86 mm Hg
ETCO2 ([4]; IV perzinfotel 20 mg/kg, 1st): 31 mm Hg
ETO2 ([4]; IV perzinfotel 20 mg/kg, 1st): 95 mm Hg
Heart Rate ([4]; IV perzinfotel 20 mg/kg, 1st): 134 beats/min
MAP ([4]; IV perzinfotel 20 mg/kg, 1st): 105 mm Hg
Respiratory Rate ([4]; IV perzinfotel 20 mg/kg, 1st): 29 breaths/min
SAP ([4]; IV perzinfotel 20 mg/kg, 1st): 138 mm Hg
Sp02 ([4]; IV perzinfotel 20 mg/kg, 1st): 99%
Body Temperature ([4]; IV perzinfotel 20 mg/kg, 2nd): 37.9 °C
DAP ([4]; IV perzinfotel 20 mg/kg, 2nd): 85 mm Hg
ETCO2 ([4]; IV perzinfotel 20 mg/kg, 2nd): 30 mm Hg
ETO2 ([4]; IV perzinfotel 20 mg/kg, 2nd): 94 mm Hg
Heart Rate ([4]; IV perzinfotel 20 mg/kg, 2nd): 141 beats/min
MAP ([4]; IV perzinfotel 20 mg/kg, 2nd): 106 mm Hg
Respiratory Rate ([4]; IV perzinfotel 20 mg/kg, 2nd): 16 breaths/min
SAP ([4]; IV perzinfotel 20 mg/kg, 2nd): 139 mm Hg
Sp02 ([4]; IV perzinfotel 20 mg/kg, 2nd): 99%
